Measurements reported in the antibiotic and cytotoxicity screens of Wong et al. (2023).
Some of the results follow.

How the values were obtained:
HSkMC = human skeletal muscle cells; experiment: cytotoxicity call (relative viability < 0.9); conditions: 10 µM
HepG2 = experiment: cytotoxicity call (relative viability < 0.9); conditions: 10 µM
S. aureus RN4220 = experiment: growth inhibition call (relative growth <= 0.2); conditions: 50 µM

SMILES | cytotoxicity call (HSkMC) | cytotoxicity call (HepG2) | growth inhibition call (S. aureus RN4220)
C[C@@H]1CN([C@H](C)CO)C(=O)c2cc(NC(=O)Nc3ccccc3)ccc2O[C@@H](C)CCCCO[C@H]1CN(C)Cc1ccc(Cl)c(Cl)c1 | active | active | inactive
O=C(C[C@H]1C[C@@H]2c3cc(NC(=O)NC4CCCC4)ccc3O[C@@H]2[C@H](CO)O1)NCc1ccc(Oc2ccccc2)cc1 | inactive | active | inactive
O=C(C[C@@H]1CC[C@H]2[C@@H](COC[C@H](O)CN2S(=O)(=O)c2ccccc2)O1)NCc1ccc(-c2ccccc2)cc1 | inactive | inactive | inactive
C[C@H]1CCCCO[C@@H](CN(C)CC2CCCCC2)[C@@H](C)CN([C@@H](C)CO)C(=O)c2cc(NC(=O)CCCN(C)C)ccc2O1 | inactive | active | inactive
COc1ccc(NC(=O)N(C)C[C@@H]2OCCCC[C@H](C)Oc3ccc(NS(=O)(=O)c4ccc(F)cc4)cc3C(=O)N([C@H](C)CO)C[C@H]2C)cc1 | inactive | inactive | inactive
N[C@@H](CC(=O)Nc1ccc(Cl)cc1)C(=O)O | inactive | inactive | inactive
CCS(=O)(=O)N1CC[C@]2(CC1)CN([C@@H](CO)c1c2c2ccc(cc2n1C)OC)C(=O)c1ccc(cc1)F | inactive | inactive | inactive
CN(C)CCCNC(=O)C[C@@H]1CC[C@@H]2[C@H](COC[C@@H](O)CN2S(=O)(=O)c2ccccc2)O1 | inactive | inactive | inactive
Cc1noc(C)c1NC(=O)N(C)C[C@@H]1Oc2ccc(NS(C)(=O)=O)cc2C(=O)N([C@H](C)CO)C[C@H]1C | inactive | inactive | inactive
C[C@@H]1CN([C@H](C)CO)C(=O)c2cc(NC(=O)Nc3cccc4ccccc34)ccc2O[C@@H](C)CCCCO[C@H]1CN(C)S(C)(=O)=O | inactive | inactive | inactive
NCC[C@H](O)C(=O)N[C@@H]1C[C@H](N)[C@@H](O[C@H]2O[C@H](CN)[C@@H](O)[C@H](O)[C@H]2O)[C@H](O)[C@H]1O[C@H]1O[C@H](CO)[C@@H](O)[C@H](N)[C@H]1O | inactive | inactive | active
CC(C)(O)[C@@H]1CC[C@]2(CO)[C@@H](O)CC[C@](C)(O)[C@H]2[C@@H]1O[C@@H]1O[C@H](CO)[C@@H](O)[C@H](O)[C@H]1O | inactive | inactive | inactive
CCS(=O)(=O)N[C@@H]1CC[C@@H](CC(=O)NCc2ccccn2)O[C@@H]1CO | inactive | inactive | inactive
O=C(C[C@H]1C=C[C@H](NC(=O)Cc2ccccn2)[C@@H](CO)O1)NCCCN1CCOCC1 | inactive | inactive | inactive
C[C@@H]1CN([C@@H](C)CO)C(=O)c2cc(NC(=O)Nc3ccccc3)ccc2O[C@@H]1CN(C)Cc1ccc(C(F)(F)F)cc1 | inactive | active | inactive
C[C@H]1CN([C@@H](C)CO)C(=O)Cc2cc(NS(=O)(=O)c3ccc(F)cc3)ccc2O[C@@H]1CN(C)S(=O)(=O)c1cccs1 | inactive | inactive | inactive
C[C@@H]1CN([C@H](C)CO)C(=O)c2cc(C#CC3CCCCC3)cnc2O[C@H]1CN(C)C(=O)c1ccncc1 | inactive | inactive | inactive
CC(C)NC(=O)Nc1cccc2c1O[C@H](CN(C)S(=O)(=O)c1ccc(Cl)cc1)[C@H](C)CN([C@H](C)CO)C2=O | inactive | inactive | inactive
O=C(N[C@@H](c1ccccc1)c1ccc2ccccc2n1)C1CCN(CCOc2ccc(Cl)cc2Cl)CC1 | inactive | inactive | inactive
C[C@@H]1CCCCO[C@@H](CN(C)C(=O)NC2CCCCC2)[C@H](C)CN([C@@H](C)CO)C(=O)c2cc(NC(=O)Nc3ccc(F)cc3)ccc2O1 | inactive | inactive | inactive
Cn1nnc2cc(C(=O)NC3CC3)ccc21 | inactive | inactive | inactive
Cc1ccc(S(=O)(=O)Nc2ccc3c(c2)CC(=O)N([C@H](C)CO)C[C@H](C)[C@@H](CN(C)S(=O)(=O)c2ccc(F)cc2)O3)cc1 | inactive | inactive | inactive
COc1ccc2c(c1)C(=O)N(CCc1ccc(S(=O)(=O)NC(=O)NC3CCCCC3)cc1)C(=O)C2(C)C | inactive | inactive | inactive
CO[C@H](CN(C)S(=O)(=O)c1cccc(Cl)c1)[C@@H](C)CN([C@@H](C)CO)S(=O)(=O)c1ccc(Cl)cc1 | inactive | inactive | inactive
C[C@@H]1CN([C@@H](C)CO)C(=O)Cc2cc(NC(=O)Cn3cnnn3)ccc2O[C@H]1CN(C)S(C)(=O)=O | inactive | inactive | inactive
C[C@@H]1CCCCO[C@@H](CN(C)CC2CCCCC2)[C@@H](C)CN([C@H](C)CO)C(=O)c2cc(NC(=O)c3ccccc3)ccc2O1 | inactive | active | inactive
C[C@@H]1CCCCO[C@H](CN(C)C(=O)c2ccccc2)[C@H](C)CN([C@@H](C)CO)C(=O)c2cc(NS(=O)(=O)c3ccc(Cl)cc3)ccc2O1 | inactive | inactive | inactive
COc1ccc(NC(=O)Nc2ccc3c(c2)C(=O)N([C@H](C)CO)C[C@@H](C)[C@H](CN(C)Cc2ccc(Cl)c(Cl)c2)OCCCC[C@@H](C)O3)cc1 | active | active | inactive

SMILES | cytotoxicity call (HSkMC) | cytotoxicity call (HepG2) | growth inhibition call (S. aureus RN4220)
C[C@@H]1CN([C@@H](C)CO)C(=O)Cc2cc(NC(=O)C3CCCCC3)ccc2O[C@H]1CN(C)Cc1ccc(C(F)(F)F)cc1 | inactive | inactive | inactive
C[C@H]1CNC(=O)O1 | inactive | inactive | inactive
C[C@@H]1CN([C@H](C)CO)S(=O)(=O)c2ccc(C#CC3CC3)cc2O[C@@H]1CN(C)C(=O)C1CCCCC1 | inactive | inactive | inactive
C[C@H]1CN([C@@H](C)CO)C(=O)c2cccc(NS(=O)(=O)c3cn(C)cn3)c2O[C@H]1CN(C)Cc1ccc(C(=O)Nc2ccccc2N)cc1 | inactive | inactive | inactive
COc1ccc(NC(=O)N(C)C[C@@H]2OCCCC[C@@H](C)Oc3ccc(NC(=O)C4CCCCC4)cc3C(=O)N([C@H](C)CO)C[C@@H]2C)cc1 | inactive | inactive | inactive
COc1ccc([C@@H]([C@H](Cc2ccccc2)OC(C)=O)N2C[C@@H](OC(C)=O)[C@H]3C(=NO[C@@H]3c3ccccc3)[C@@H]2Cc2ccccc2)cc1 | inactive | inactive | inactive
C[C@@H]1CN([C@@H](C)CO)C(=O)c2cc(NS(=O)(=O)c3ccc(F)cc3)ccc2O[C@@H]1CN(C)C(=O)Nc1cccc2ccccc12 | inactive | inactive | inactive
C[C@H](CO)N1C[C@H](C)[C@H](CN(C)Cc2ccccc2)Oc2ccc(NC(=O)Cn3cnnn3)cc2C1=O | inactive | inactive | inactive
O=C1CCCNCC1 | inactive | inactive | inactive
CN(C)CC(=O)N[C@@H]1CC[C@@H](CCNC(=O)C2CC2)O[C@H]1CO | inactive | inactive | inactive
C[C@@H]1CN([C@@H](C)CO)C(=O)c2cc(NC(=O)NC3CCCCC3)ccc2O[C@@H](C)CCCCO[C@H]1CN(C)C(=O)CCC(F)(F)F | inactive | inactive | inactive
CO[C@H]1CN(C)C(=O)c2cc(NS(C)(=O)=O)ccc2OC[C@@H](C)N(C(=O)CN(C)C)C[C@H]1C | inactive | inactive | inactive
C[C@H]1CN([C@@H](C)CO)S(=O)(=O)c2ccc(-c3ccccc3F)cc2O[C@@H]1CN(C)Cc1cncnc1 | inactive | inactive | inactive
C[C@@H]1CN([C@H](C)CO)C(=O)c2cc(NC(=O)Nc3ccc4c(c3)OCO4)ccc2O[C@@H](C)CCCCO[C@H]1CN(C)Cc1ccc(Cl)c(Cl)c1 | inactive | active | inactive
O=C(O)c1cc2cccnc2[nH]c1=O | inactive | inactive | inactive
C[C@H]1CN([C@@H](C)CO)C(=O)Cc2cc(NC(=O)Cn3cnnn3)ccc2O[C@@H]1CN(C)Cc1ccc(Oc2ccccc2)cc1 | inactive | inactive | inactive
C[C@@H]1CN([C@@H](C)CO)C(=O)c2cc(NC(=O)Nc3cccc4ccccc34)ccc2O[C@H]1CN(C)Cc1ccc(Oc2ccccc2)cc1 | inactive | inactive | inactive
CC(=O)OC1CC2CC(OC(C)=O)C3(C)C(CCC4(C)C(c5ccoc5)OC(OC(C)=O)C5OC543)C2(C)C(OC(C)=O)C1 (stereo not given) | inactive | inactive | inactive
C[C@H]1CN([C@@H](C)CO)C(=O)c2cc(NC(=O)C3CC3)ccc2O[C@@H]1CN(C)Cc1ccc(C(=O)O)cc1 | inactive | inactive | inactive
O=C(O)[C@H]1C[C@H](O)CN1Cc1ccccc1 | inactive | inactive | inactive
C[C@@H]1CN([C@H](C)CO)C(=O)c2cccc(NS(C)(=O)=O)c2O[C@@H]1CN(C)S(=O)(=O)c1ccc(Cl)cc1 | inactive | inactive | inactive
Cc1noc(C)c1S(=O)(=O)Nc1ccc2c(c1)C(=O)N([C@@H](C)CO)C[C@@H](C)[C@@H](CN(C)S(=O)(=O)c1cn(C)cn1)OCCCC[C@H](C)O2 | inactive | inactive | inactive
CO[C@H]1CN(C)C(=O)c2cc(NC(=O)Nc3cccc(F)c3)ccc2OC[C@H](C)N(C(=O)Nc2c(C)noc2C)C[C@H]1C | inactive | inactive | inactive
COc1cc(N2CC[C@H]3O[C@@H](C(=O)NCCN(C)C)C[C@H]32)ncn1 | inactive | inactive | inactive
Cn1c(=O)c2c(NCCc3ccc(S(N)(=O)=O)cc3)ccnc2n(C)c1=O | inactive | inactive | inactive
C[C@@H]1CN([C@@H](C)CO)C(=O)c2cc(-c3cccc(C(=O)N(C)C)c3)cnc2O[C@H]1CN(C)S(=O)(=O)c1ccc(F)cc1 | inactive | inactive | inactive
CC(C)(C)NC(=O)C1CN(Cc2cccnc2)CCN1CC(O)CC(Cc1ccccc1)C(=O)NC1c2ccccc2CC1O (stereo not given) | inactive | active | inactive
